We go through one molecule from patent US6340783 (University of Washington, dated 2002).

For test [1], the target named is T1, high Mr heparan sulfate proteoglycan (HSPG) isolated from the culture media of bovine aortic endothelial cells (bovine (calf thoracic aorta endothelial …, UniProt A0AAA9TDR0 23-4401, Proteoglycan: heparan sulfate GAG chains on serines of the core protein also take part in binding and cannot be written in letters. 35S-sulfate or 125I label, depending on the experiment.)).
T1 construct: also called high Mr HSPG; high molecular weight HSPG
The test is described as follows: solid phase binding assay, 125I-BAP (1-28) on HSPG (0.28 µg) immobilised on nitrocellulose coated wells, Scatchard analysis; high affinity binding site. Here is the method: (§1) Wells were blocked overnight at room temperature with 200 μl of 5% non-fat dried milk. After blocking, wells were rinsed 3 times with 200 μl of TBS. […] Bars indicate standard error of the mean.
(§2) Polyvinyl microtiter wells were coated with 100 µl of nitrocellulose solution (Schleicher and Schuell) (10 cm² of BA85 nitrocellulose in 10 ml of methanol) and allowed to dry at room temperature for 4 hours. Wells were coated overnight at room temperature with unlabeled HSPG to give 0.12 µg or 0.28 µg of bound-HSPG per well, and blocked overnight at room temperature with 200 µl of 5% non-fat dried milk (Carnation Co., Los Angeles, Calif.).

For test [2], the target named is T2, low density heparan sulfate proteoglycan isolated from the mouse Engelbreth-Holm-Swarm (EHS) sarcoma … (mouse, UniProt Q05793 22-3707, limits assumed, heparan sulfate glycosaminoglycan chains on the core protein).
T2 construct: Purified from tumor; gift of Dr. Koji Kimata; also called EHS HSPG; EHS basement-membrane HSPG
Put plainly: competition with 125I-HSPG on the BAP (1-28) affinity column.

In test [3] the target is T1, high Mr heparan sulfate proteoglycan …. The test is described as follows: solid phase binding assay, 125I-BAP (1-28) on HSPG (0.28 µg) immobilised on nitrocellulose coated wells, Scatchard analysis; low affinity binding site. The method, then: as §1, §2

T1 sequence (A0AAA9TDR0 entry or part of it limits assumed, form in doubt): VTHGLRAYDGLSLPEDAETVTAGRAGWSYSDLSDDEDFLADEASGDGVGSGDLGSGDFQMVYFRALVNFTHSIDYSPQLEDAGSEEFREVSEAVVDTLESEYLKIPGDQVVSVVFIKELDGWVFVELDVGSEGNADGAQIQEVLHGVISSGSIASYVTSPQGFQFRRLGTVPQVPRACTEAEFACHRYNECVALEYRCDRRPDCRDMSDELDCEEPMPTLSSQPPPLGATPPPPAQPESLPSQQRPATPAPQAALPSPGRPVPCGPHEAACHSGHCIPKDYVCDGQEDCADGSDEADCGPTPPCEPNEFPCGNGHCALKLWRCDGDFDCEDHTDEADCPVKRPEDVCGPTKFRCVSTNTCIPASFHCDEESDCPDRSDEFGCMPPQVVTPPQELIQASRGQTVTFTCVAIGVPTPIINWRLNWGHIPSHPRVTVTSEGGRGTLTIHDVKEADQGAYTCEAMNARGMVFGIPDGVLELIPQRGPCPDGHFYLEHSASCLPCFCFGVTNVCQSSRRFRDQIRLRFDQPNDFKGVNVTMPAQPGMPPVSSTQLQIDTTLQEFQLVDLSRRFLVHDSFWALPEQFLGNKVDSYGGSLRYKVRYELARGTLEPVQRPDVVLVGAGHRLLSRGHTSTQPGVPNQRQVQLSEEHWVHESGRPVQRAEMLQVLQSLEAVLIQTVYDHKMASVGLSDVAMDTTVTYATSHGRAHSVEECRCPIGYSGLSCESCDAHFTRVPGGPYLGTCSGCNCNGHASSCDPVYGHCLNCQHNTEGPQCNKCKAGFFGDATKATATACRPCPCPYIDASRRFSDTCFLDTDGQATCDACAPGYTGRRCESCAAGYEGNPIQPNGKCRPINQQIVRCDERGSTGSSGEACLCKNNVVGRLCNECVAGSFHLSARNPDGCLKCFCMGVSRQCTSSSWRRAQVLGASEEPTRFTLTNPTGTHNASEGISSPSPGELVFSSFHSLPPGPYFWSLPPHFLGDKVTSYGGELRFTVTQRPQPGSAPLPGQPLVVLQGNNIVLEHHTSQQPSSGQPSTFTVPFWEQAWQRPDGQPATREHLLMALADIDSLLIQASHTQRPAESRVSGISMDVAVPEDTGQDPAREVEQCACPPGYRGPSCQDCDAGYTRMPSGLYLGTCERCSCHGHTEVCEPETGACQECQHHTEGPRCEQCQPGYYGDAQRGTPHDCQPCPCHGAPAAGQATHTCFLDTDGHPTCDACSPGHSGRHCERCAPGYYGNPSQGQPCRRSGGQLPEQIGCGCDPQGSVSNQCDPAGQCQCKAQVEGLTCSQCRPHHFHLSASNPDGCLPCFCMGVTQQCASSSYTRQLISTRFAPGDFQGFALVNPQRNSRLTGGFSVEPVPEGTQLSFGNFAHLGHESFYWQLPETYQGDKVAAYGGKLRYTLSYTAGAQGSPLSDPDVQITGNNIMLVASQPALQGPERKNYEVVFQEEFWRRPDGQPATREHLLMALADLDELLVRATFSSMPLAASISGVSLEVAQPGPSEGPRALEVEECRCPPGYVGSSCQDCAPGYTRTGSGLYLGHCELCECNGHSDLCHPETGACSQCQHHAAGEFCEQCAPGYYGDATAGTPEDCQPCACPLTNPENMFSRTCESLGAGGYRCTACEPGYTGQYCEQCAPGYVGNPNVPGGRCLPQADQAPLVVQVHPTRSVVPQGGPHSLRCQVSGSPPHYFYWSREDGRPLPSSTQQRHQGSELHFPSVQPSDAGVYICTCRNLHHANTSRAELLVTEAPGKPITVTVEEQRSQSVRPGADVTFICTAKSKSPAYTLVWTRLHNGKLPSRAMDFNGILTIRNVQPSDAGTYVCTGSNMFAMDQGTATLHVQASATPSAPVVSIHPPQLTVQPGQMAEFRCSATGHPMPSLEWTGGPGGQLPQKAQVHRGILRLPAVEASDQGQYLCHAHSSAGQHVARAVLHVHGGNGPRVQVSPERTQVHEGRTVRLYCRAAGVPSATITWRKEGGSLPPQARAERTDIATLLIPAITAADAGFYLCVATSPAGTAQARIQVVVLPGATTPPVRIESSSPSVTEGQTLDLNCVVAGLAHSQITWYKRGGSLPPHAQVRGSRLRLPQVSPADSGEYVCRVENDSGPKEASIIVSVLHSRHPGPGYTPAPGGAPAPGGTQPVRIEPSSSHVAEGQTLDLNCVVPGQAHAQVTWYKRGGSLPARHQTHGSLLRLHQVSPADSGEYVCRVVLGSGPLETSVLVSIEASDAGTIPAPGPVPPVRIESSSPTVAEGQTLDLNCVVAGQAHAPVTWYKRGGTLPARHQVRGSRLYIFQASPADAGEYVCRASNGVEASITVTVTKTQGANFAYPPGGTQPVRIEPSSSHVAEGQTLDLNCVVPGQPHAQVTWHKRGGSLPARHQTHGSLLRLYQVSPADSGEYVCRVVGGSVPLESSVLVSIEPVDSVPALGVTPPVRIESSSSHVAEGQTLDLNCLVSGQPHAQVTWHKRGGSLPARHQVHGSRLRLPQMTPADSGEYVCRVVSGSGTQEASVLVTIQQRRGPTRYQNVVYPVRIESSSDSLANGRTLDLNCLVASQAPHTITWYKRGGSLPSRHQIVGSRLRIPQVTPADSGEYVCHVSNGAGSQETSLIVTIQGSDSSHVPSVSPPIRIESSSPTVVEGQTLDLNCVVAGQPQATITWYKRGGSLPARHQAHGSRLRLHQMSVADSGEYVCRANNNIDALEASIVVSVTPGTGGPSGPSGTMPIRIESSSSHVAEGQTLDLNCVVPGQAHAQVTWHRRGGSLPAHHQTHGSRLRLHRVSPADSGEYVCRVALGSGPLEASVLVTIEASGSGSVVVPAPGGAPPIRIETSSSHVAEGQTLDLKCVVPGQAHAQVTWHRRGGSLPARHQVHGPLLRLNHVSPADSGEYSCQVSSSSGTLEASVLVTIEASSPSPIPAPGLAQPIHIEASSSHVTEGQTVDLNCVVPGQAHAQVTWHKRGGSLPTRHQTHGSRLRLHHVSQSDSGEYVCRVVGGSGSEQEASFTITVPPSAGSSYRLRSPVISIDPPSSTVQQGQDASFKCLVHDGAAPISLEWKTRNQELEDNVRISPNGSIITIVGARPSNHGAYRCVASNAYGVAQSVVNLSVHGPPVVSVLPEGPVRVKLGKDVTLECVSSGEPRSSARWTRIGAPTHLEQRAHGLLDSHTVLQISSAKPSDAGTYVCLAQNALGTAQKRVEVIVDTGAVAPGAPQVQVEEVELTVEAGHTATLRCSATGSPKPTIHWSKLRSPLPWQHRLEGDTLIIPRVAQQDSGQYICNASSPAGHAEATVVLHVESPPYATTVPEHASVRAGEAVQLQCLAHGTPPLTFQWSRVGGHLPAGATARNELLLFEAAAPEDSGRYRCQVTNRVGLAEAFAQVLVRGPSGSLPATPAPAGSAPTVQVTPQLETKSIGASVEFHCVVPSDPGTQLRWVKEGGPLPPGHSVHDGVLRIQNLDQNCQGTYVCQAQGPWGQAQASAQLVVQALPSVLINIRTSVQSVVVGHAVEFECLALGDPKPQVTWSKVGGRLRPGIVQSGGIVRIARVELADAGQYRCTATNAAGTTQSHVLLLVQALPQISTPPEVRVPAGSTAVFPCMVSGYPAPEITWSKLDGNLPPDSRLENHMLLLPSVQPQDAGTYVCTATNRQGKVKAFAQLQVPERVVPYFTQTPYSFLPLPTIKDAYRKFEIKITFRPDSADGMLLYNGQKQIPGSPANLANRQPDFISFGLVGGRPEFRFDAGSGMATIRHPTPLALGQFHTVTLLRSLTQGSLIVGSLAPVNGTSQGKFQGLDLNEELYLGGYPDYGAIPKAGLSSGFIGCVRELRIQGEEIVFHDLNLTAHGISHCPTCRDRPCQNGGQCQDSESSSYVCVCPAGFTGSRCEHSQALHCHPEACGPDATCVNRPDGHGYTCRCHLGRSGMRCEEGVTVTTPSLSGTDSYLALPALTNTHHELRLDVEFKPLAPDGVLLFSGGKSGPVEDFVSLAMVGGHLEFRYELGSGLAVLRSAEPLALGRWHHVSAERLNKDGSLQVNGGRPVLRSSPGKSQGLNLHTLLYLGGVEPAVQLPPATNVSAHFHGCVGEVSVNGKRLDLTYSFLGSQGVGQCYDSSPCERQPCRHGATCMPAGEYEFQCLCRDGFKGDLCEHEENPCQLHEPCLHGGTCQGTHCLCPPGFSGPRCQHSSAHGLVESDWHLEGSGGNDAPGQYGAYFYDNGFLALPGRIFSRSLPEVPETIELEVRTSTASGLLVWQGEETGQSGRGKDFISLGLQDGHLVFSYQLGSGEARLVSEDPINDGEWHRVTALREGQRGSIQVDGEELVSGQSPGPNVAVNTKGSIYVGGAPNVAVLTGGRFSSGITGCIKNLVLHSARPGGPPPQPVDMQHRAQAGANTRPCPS

B1: beta-amyloid protein (BAP) […], synthetic peptide (peptide)
peptide: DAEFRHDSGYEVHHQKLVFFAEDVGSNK
modifications: 125I label (chloramine T) in the solid phase binding assay; unlabeled and coupled to Affi-gel 10 in the column assays ; chain 1: 125I-iodinated by the chloramine T method in the solid phase binding assay; unlabeled and coupled to Affi-gel 10 in the column assays
notes: only residues 12-17 are spelled out (Val-His-His-Gln-Lys-Leu); also called BAP ([…]); β/A4 ([…])
As a reminder, the Kd is the concentration at which binding is half-saturated. As for B1, the Kd in test [1] stood at 0.083 nM; in test [3], 42 nM. The binding result in test [2] is listed as “binds”.
